According to the supplement of paper PMC3334620:
In all, about 33,000 sequences were measured (“E-score (-0.5 to 0.5)”: median about -0.013, highest 2% from about 0.3 on). Some of the results follow.

What follows are sequences tested against T1, Msn1 (UniProt P22148) (assay: PBM E-score (8-mer binding enrichment) (E-score (-0.5 to 0.5)); higher = stronger / more preferred TF binding; most listed sequences are background and not binding sites). Conditions: protein concentration: 200 nM; construct: GST-full length.
T1 sequence: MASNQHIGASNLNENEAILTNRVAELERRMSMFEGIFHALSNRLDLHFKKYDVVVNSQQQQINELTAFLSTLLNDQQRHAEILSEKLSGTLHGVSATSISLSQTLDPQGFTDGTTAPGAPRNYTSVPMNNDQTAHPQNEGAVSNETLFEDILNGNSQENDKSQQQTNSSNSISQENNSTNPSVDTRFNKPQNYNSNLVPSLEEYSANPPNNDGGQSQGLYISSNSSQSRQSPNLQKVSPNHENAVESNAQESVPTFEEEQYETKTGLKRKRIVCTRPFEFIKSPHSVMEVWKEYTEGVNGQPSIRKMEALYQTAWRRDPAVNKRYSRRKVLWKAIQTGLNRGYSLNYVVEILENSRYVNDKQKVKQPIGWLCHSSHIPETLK
Method: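 Universal 'all 10-mer' protein binding microarrays (Agilent AMADID 015681) probed with GST-tagged S. cerevisiae TFs (full-length or DBD) made by in vitro transcription/translation (PURExpress), about 100-200 nM. Bound TF was detected with fluorescent anti-GST. Each ungapped 8-mer (which stands for itself and its reverse complement) is scored by the PBM enrichment score (E-score), a modified Wilcoxon-Mann-Whitney statistic from -0.5 to +0.5, computed with the Universal PBM Analysis Suite. Scale: above 0.35 generally sequence-specific binding.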

Sequence	PBM E-score
ATGAAAAT	0.211
TAAGAGGA	-0.0597
ATGGCCAC	-0.296
CAGTTCAG	-0.18
AAAATTAC	0.134
CTCACCCC	-0.243
CGCCGCGA	0.082
GTTAACTA	-0.00919
CGTCCCAA	0.218
CATCTCCC	-0.122
CTCAAGAC	0.0771
ACCTATAG	-0.206
AGGCCATG	0.0901
GCAAAAAC	0.127
CCTCATAC	0.0462
TCAGTAAA	0.151
AGTGACTA	0.0812
ACAGATGC	0.0152
CGACTGCA	-0.0411
AACCGACT	0.0458
AACAAACC	0.155
CGTGCAAA	0.0124
CCAGATCC	-0.293
GGCAAACA	0.076
ATATGAGA	0.0596

Sequence	PBM E-score
CCCATTAG	-0.329
ACTAATTG	0.16
GAGAGTGC	-0.181
GAACGTGC	-0.217
ACGTCGAG	-0.0605
CGACGTAC	-0.0473
CGTAGACG	0.0263
GCGTGTAA	-0.056
AACAACTC	-0.0213
CGCCCTAC	-0.291
ACGGTCCG	-0.0941
GGGCACAA	-0.131
GTCGAAGA	0.0857
CTCTAGAA	0.0416
GGGAGAGA	-0.238
CCTTGGGC	-0.279
AGCTTTAG	-0.026
TCATATAA	0.0946
ATCGAATA	-0.0288
AGCTGCCT	-0.244
CCACCAGA	-0.257
TAAATTCA	0.00407
GTACATCA	0.146
AACCGGTA	-0.0654
ACCGTGTA	0.0262

Sequence	PBM E-score
TAAGCTGA	-0.0597
CAATCCAC	-0.0564
CTGAAGAA	-0.16
CTCACCAC	-0.0522
TAACCTAA	0.00422
GAATTGGC	-0.278
ATAAACAT	0.125
GTATGCAA	-0.00101
ATAGATCA	0.147
AGTTAGAC	0.124
GGTAGCAA	-0.098
TATCTAGA	-0.0296
AGTCAGAA	-0.0729
CTGGCAAC	0.0713
ATAACACA	0.0274
ATTGTTGA	0.0126
AAGTAGTG	-0.0319
ATGCAAGC	-0.106
AGGTAGCC	-0.0374
GAAGCAGC	-0.0921
CATATTGC	-0.129
CATCGGCC	-0.0617
CATGATGG	-0.158
ACAGCCTG	-0.0349
CGGCACAC	0.0246

Sequence	PBM E-score
ACGCTACT	-0.113
ATTTATAA	0.322
AGATCATC	-0.0974
CAGGCAGC	-0.15
ATCTAATC	0.037
CTAGTAAG	0.0281
ACAGAAGG	0.00522
CTTGAGTA	-0.0328
CCGGATGC	-0.0974
ATACTCTG	0.0822
ATAGTTGA	0.0511
AAGGAGAA	-0.162
CTTGATTC	0.0671
ACCCAACA	-0.179
ACGAAGAG	-0.0472
AGAGCTAA	-0.0343
CATAACTA	0.116
GAGGAGAA	-0.216
CAGGGAGC	-0.175
CTCAGTGC	-0.0812
CGGGTACG	-0.269
CTTAGCCA	-0.0398
AAAAGATT	0.0785
CAGAGCTA	-0.28
CGCACAAG	0.0585

Sequence	PBM E-score
CACATTTC	0.0909
CAATACAA	0.0229
GGTGCCTA	-0.107
CTAGCGCA	-0.153
CTCGGGAA	0.0364
AGTAACAC	-0.0452
TACATGTA	0.247
CCCCCCAC	-0.373
CCAGACTA	0.11
ATGGGACC	0.00395
CCAATTAG	0.128
GTCGGCCA	-0.298
CCCTAAAA	-0.0623
ACCAAGCG	-0.17
CCGATCAA	-0.0451
GGATGAAC	-0.0703
GGGCGGAA	-0.1
ATCGGAAG	0.031
TAATAGTA	0.156
CCTAGGAG	-0.068
AACGGACT	-0.00389
ACGGCACA	-0.00613
GTTTATTA	0.174
GTCCTCCA	0.145
ACATCCAA	0.141

Sequence	PBM E-score
CGATTGCG	-0.0545
CCTTTACC	-0.116
ACTTGATA	0.27
CTGCGCCC	-0.219
ATGTAGTG	-0.0691
GTTATAAA	0.205
CTCACAGA	0.0295
GTTAGTAA	0.0398
AAGACTTG	0.134
AGTTGCAG	-0.128
AGCCATAG	-0.0834
AGTGGTGA	0.0265
ACAAAACA	0.278
CCGGACGC	0.13
CTTCCCCC	-0.302
ATGCATAC	0.0529
AACTCCCG	-0.0488
TTACTCAA	0.0639
CATGCCAA	0.01
ATGAAAGA	-0.00032
ACTCGGCC	0.109
GAGCCATC	-0.171
CCACGAAA	0.171
CCCTCCCG	-0.157
AAATAATC	0.0127

Sequence	PBM E-score
ACGCGTTC	0.122
CGACTCCG	-0.0986
TGGGCAAA	0.0303
AAAGCGCA	-0.153
CTAAAATA	0.0361
GTAAAGCA	0.0239
ATAAATAC	0.227
CCGGGCCA	-0.114
CTGAGTGC	-0.0601
CTACTAAA	0.057
CTTGGTTA	0.114
GACCCGTA	-0.049
CGAAACGA	0.128
AAGTTTTG	-0.0744
GCGGGCGA	0.0449
AGATCTAC	-0.165
ATAGATGC	-0.054
CAGTCGGA	0.0274
ACCTTATG	0.051
GTCAATAA	0.0557
TATGATGA	0.126
CGCTACAA	-0.117
